According to PubChem BioAssay AID686979 (National Center for Advancing Translational Sciences (NCATS), 2013):
The campaign covered roughly 420,000 compounds. About 50,000 (12%) were called active. The inconclusive results got no clear call from the source; some entries with a clear call stand among them for comparison. Calls come from the whole dose curve; as a rule, active = well fitted inhibition curve with a large enough effect; inconclusive = small, poorly fitted or top-dose-only effect; inactive = flat fitted curve, though single readings scatter. No potency is given beside an inconclusive call; the fits are too rough.

Assay: qHTS for Inhibitors of human tyrosyl-DNA phosphodiesterase 1 (TDP1): qHTS in cells in presence of CPT; note: nearly all actives have a fitted effect of over 55% in size
Conditions: chicken DT40 Tdp1-/-;hTDP1 cells + 20 nM CPT, ATP luminescence, 48 h; series mostly up to 46.2 µM
How it was run: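 Cell growth measured by CellTiter-Glo luminescence after a minimum 48 h, 37 C compound exposure with 20 nM CPT in Tdp1-knockout DT40 cells stably expressing hTDP1, seeded 400/well; qHTS titration format.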
Potency is the fitted concentration of half-maximal effect; tags give direction and shape of the fitted curve.

Row | Structure (SMILES) | Potency
1 | Cc1cc(C)n(-c2ccc(C(=O)O)cc2)n1 | inactive
2 | CCOC(=O)c1cc(-c2ccccc2)n(CC(=O)NC(C)(C)C)c1C | inconclusive [inhibitor, single point]
3 | O=C(CC1S/C(=N\S(=O)(=O)c2ccc(F)cc2)N(c2ccccc2)C1=O)Nc1ccccc1 (centres undefined) | inconclusive [inhibitor, single point]
4 | CCc1ccc(NC(=O)CC2C(=O)N(c3ccc(Cl)cc3)C(=O)N2Cc2ccco2)cc1 (centres undefined) | active: 20.6 µM
5 | CCCC[C@@H]1CNC(=O)C(=O)N1CCCCC1CCCCC1 | inconclusive [inhibitor, partial curve]
6 | O=[N+]([O-])c1cccc(C(=Nc2ccc(Cl)cc2)NO)c1 | inconclusive [inhibitor, partial curve]
7 | COc1ccccc1CCNC(=O)c1cc(COc2cccc(C(F)(F)F)c2)on1 | inconclusive [inhibitor, single point]
8 | Cc1onc(-c2ccccc2)c1C(=O)NNC(=S)NC(=O)/C=C/c1ccccc1 | active: 20.6 µM
9 | Cc1cccc(NC(=O)c2ccc(Cl)c(S(=O)(=O)N3CCCCC3)c2)n1 | inconclusive [inhibitor, single point]
10 | O=C(CN1C(=O)C2CC=CCC2C1=O)NCC1COc2ccccc2O1 (centres undefined) | inactive
11 | CCc1ccc(CN2CCc3nc(Nc4ccccc4)ncc3C2)cc1 | inconclusive [inhibitor, single point]
12 | O=C(N/N=C/c1c(O)n(-c2ccccc2Cl)c(=O)c2ccccc12)C1COc2ccccc2O1 (centres undefined) | inconclusive [inhibitor, single point]
13 | Cc1ccc(C(=O)NCC(=O)N(C)Cc2ccc(Cl)cc2Cl)s1 | inconclusive [inhibitor, single point]
14 | CCOc1ccccc1C(=O)NC(C)c1ccc2c(c1)OCO2 (centres undefined) | active: 18.4 µM
15 | N#Cc1cc([N+](=O)[O-])ccc1NC(=O)COC(=O)CN1C(=O)C2CCCCC2C1=O (centres undefined) | inconclusive [inhibitor, single point]
16 | CCCCn1nnnc1C(c1cc2ccccc2o1)N(Cc1ccccc1)Cc1ccccc1 (centres undefined) | inconclusive [inhibitor, single point]
17 | O=C1CCCCC/C1=N/Nc1ccc(OCc2ccccc2)cc1 | inconclusive [inhibitor, single point]
18 | COc1cccc(C2c3c(-c4ccccc4O)n[nH]c3C(=O)N2Cc2ccco2)c1 (centres undefined) | inconclusive [inhibitor, single point]
19 | Cc1ccc(CN2CCN(Cc3cccc4c3OCO4)CC2CCO)cc1 (centres undefined) | inconclusive [inhibitor, single point]
20 | O=C1C2CC=CCC2C(=O)N1c1ccc(NCCc2ccccc2F)c([N+](=O)[O-])c1 (centres undefined) | inconclusive [inhibitor, single point]
21 | COc1ccc(NC(=O)CSc2nc3ccc(Nc4nc(N5CCOCC5)nc(N5CCOCC5)n4)cc3s2)cc1 | active: 11.6 µM
22 | C=CC[C@@H](CC(=O)N(CCO)Cc1ccccc1)C(=O)N[C@H](COC(=O)[C@@H](CC=C)CC(=O)OC(C)(C)C)C(C)(C)C | inconclusive [inhibitor, single point]

Row | Structure (SMILES) | Potency
23 | CC(=O)Nc1ccc(NC(=O)c2cc3sccc3n2Cc2ccc(F)cc2)cc1 | inconclusive [inhibitor, partial curve]
24 | CC(C)(C)C1CCc2c(sc3nc(-c4cc5cc(Br)ccc5oc4=O)[nH]c(=O)c23)C1 (centres undefined) | inactive
25 | CCCNC(=O)C1CC(c2ccccc2[N+](=O)[O-])=NO1 (centres undefined) | inactive
26 | CN(CCc1cnn(C)c1)Cc1nc(Cc2ccccc2)no1 | inactive
27 | N[C@@H](C(=O)N[C@@H]1C(=O)N2C(C(=O)O)=C(CSc3cn[nH]n3)CS[C@H]12)c1ccc(O)cc1 | inactive
28 | CCOc1cc(S(=O)(=O)NCc2ccncc2)ccc1Cl | active: 0.517 µM
29 | O=C(NC1CCS(=O)(=O)C1)c1ccc(Br)o1 (centres undefined) | inactive
30 | CCCN(CC(=O)Nc1ccccc1C)C(=O)Cc1n[nH]c(=O)c2ccccc12 | inactive
31 | CN(Cc1cccc(F)c1)C(=O)c1ccc(S(=O)(=O)N2CCCCCC2)cc1 | inconclusive [inhibitor, single point]
32 | CCOc1cc(/C=C2\SC(N3CCCC(C)C3)=NC2=O)ccc1O (centres undefined) | inconclusive [inhibitor, single point]
33 | COc1ccc(COC(=O)C2=C(C)NC(=O)NC2c2cccc(Br)c2)cc1 (centres undefined) | inconclusive [inhibitor, single point]
34 | CC1(C)CC(=O)C=C(NCCN2CCN(C(=S)NC3CCCCC3)CC2)C1 | inactive
35 | COCCNC(=S)Nc1ccc(N2CCCCC2)cc1 | inconclusive [inhibitor, single point]
36 | CC(C)Cc1nc(N2CCOCC2)c(C#N)c2c1CCC2 | inconclusive [inhibitor, single point]
37 | CNC(=O)C[C@H]1C(=O)N(CCc2ccccc2)C[C@@H]1CSC | inactive
38 | Nn1c(COc2ccc(Cl)cc2)nc2ccccc2c1=O | inconclusive [inhibitor, single point]
39 | CCCN(C(=O)c1nc2nc(C)cc(C)n2n1)c1c(N)n(Cc2ccccc2)c(=O)[nH]c1=O | inactive
40 | O=C(c1ccc(C23CC4CC(CC(C4)C2)C3)o1)N1CCOCC1 | inconclusive [inhibitor, single point]
41 | S=C(Nc1ccc(Br)cc1)N1CCN(c2ccccn2)CC1 | inactive
42 | Cc1nc(N)nc(N)c1/C=C/C(C)(C)c1ccc(Cl)cc1 | inconclusive [inhibitor, partial curve, poor fit]
43 | C=CC(c1ccccc1)C(C(=O)c1ccccc1)N(C)C (centres undefined) | inconclusive [inhibitor, single point]
44 | COc1ccc(-c2nc3cnc(Oc4cccc(Cl)c4)nc3n(CCC#N)c2=O)cc1 | inconclusive [inhibitor, partial curve]
